About 14,000 (4.5%) of roughly 310,000 compounds showed an effect of 50% or more. Effects have a minus sign here. The list shows a part of the results.
What follows are compounds tested against human ether-à-go-go-related gene (hERG) potassium channel (human, UniProt Q12809) (assay: primary screen, population patch clamp on CHO cells stably expressing hERG).
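Further: peak tail current of the secondary pulse compared with the same well before compound.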

human ether-à-go-go-related gene (hERG) potassium channel, sequence (Q12809 whole entry, looked up): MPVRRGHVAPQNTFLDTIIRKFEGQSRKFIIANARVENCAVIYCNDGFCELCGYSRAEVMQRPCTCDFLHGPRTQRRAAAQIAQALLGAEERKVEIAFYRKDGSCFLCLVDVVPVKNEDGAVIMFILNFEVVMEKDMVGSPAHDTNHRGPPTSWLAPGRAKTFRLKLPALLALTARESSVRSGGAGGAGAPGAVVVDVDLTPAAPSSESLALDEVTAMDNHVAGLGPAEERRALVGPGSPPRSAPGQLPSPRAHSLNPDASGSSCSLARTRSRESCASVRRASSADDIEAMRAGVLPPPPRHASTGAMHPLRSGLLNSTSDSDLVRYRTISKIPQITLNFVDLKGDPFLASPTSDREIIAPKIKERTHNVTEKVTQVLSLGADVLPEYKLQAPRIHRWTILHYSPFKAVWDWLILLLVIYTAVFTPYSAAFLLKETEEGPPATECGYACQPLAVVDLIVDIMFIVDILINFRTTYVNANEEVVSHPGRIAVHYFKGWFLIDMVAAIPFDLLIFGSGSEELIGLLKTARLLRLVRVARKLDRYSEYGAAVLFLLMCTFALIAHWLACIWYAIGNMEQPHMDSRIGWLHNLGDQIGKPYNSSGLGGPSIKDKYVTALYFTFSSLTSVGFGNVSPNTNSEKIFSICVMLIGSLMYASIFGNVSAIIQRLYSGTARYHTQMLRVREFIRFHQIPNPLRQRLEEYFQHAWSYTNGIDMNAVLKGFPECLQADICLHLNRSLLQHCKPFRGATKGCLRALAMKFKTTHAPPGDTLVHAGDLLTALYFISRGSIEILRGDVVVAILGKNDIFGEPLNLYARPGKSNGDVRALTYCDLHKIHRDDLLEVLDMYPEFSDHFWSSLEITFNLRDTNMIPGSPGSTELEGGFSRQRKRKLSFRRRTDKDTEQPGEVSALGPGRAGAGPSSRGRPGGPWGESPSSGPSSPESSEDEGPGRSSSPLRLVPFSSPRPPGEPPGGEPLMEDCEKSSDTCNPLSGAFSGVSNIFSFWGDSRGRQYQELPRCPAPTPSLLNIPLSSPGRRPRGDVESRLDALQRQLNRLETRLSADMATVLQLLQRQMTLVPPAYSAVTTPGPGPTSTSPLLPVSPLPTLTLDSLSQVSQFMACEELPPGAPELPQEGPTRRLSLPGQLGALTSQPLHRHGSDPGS

| SMILES | hERG current change (%, negative = inhibition) at 10uM [%] |
| --- | --- |
| COc1ccc(C(=O)CN2C(=O)c3ccccc3C2=O)c(OC)c1C | 3.92 |
| CCN(CCNS(=O)(=O)c1ccc2[nH]c(=O)sc2c1)c1ccccc1 | -28.5 |
| COc1ccc(-c2nnc(SCC(=O)Nc3nncs3)o2)cc1 | 21.3 |
| Cc1ccc(S(=O)(=O)N2CCOCC2)cc1NC(=O)Cn1ccsc1=N.Cl | -5.64 |
| O=[N+]([O-])c1ccc(CS(=O)(=O)c2ccc(Cl)cc2)cc1 | -9.81 |
| O=C(O)c1cccc(S(=O)(=O)N2CCN(c3ccccn3)CC2)c1 | 19.3 |
| O=C(CSc1nc2ncc(Cl)cc2[nH]1)NCC(=O)Nc1ccc(F)c(F)c1F | -11.7 |
| C=CCN1CN=C(NS(=O)(=O)c2ccc(NC(C)=O)cc2)NC1 | -0.801 |
| Cl.c1ccc(-c2csc(N3CCOCC3)n2)cc1 | -1.86 |
| CCOC(=O)c1c(-c2ccccc2)cn2c(C)cc(C)nc12 | -22.9 |
| COc1ccc(/C=C2\SC(=O)NC2=S)cc1OC | 7.46 |
| CCOc1cc(C(=O)N(CC)CC(=O)Nc2c(F)cccc2F)ccc1OCC(=O)N1CCCCC1 | -7.38 |
| Cc1ccc(S(=O)(=O)N2CCCCC2C)cc1[N+](=O)[O-] (centres unmarked) | 4.84 |
| OC(c1ccccc1)(c1ccccc1)C1CCN(C(=S)NC2CCCC2)CC1 | -6.13 |
| Cc1cc(C(=O)CN2CCN(CC(=O)Nc3ccc(F)cc3)CC2)c(C)n1C1CC1 | -74.5 |
| O/N=C\c1ccc2noc(-c3ccc(Cl)cc3)c2c1 | 15.3 |
| CCOc1ccccc1NC(=O)COC(=O)c1ccccc1SCC(=O)N1CCCC1 | 1.65 |
| COc1ccc(CC(=O)OCC(=O)Nc2c(C)n(C)n(-c3ccccc3)c2=O)cc1 | -7.08 |
| Cl.O=C1c2cccc3cccc(c23)C(=O)N1CC1CCN(CC(O)COCc2ccc3c(c2)OCO3)CC1 (centres unmarked) | -75.3 |
| C#CCOCCOCCOCCNc1nc(N2CCN(C(=O)Cn3cc(CCC[NH+]=C(N)N)nn3)CC2)nc(N2CCN(C(=O)[C@H](CCCC[NH3+])n3cc(CCC(=O)O)nn3)CC2)n1.[Cl-] | -11.4 |
| Cc1ccc(N2C(=O)CSC2c2cccnc2)cc1F (centres unmarked) | 5.77 |
| CC(C)(C)c1ccc(C(=O)Nc2nnc(Cc3c[nH]c4ccccc34)s2)cc1 | 3.42 |
| Fc1ccccc1-c1n[nH]c(=S)n1/N=C/c1c[nH]c2ccccc12 | 17.3 |
